This passage reports GI50 and TGI results from PubChem BioAssay (NCI).

Several values for one entry are separate records, joined by “and”; a condition that tells them apart may be missing. Identical values can stand only once.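 Step 1: Grow cells in 96-well plates. Step 2: Expose to compound for 48 hours at 5 concentrations. Step 3: Interpolate endpoints linearly; if unreached, use highest concentration. At the GI50, growth is halved. The concentration for full growth arrest is given as TGI.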

The test system of the experiment is NCI-H322M lung. As to the kind of experiment: growth of human tumour cells (NCI), 48 h.
Consider `CC(=O)O[C@H]1[C@@H]2OC(=O)C(CSc3ccccc3)[C@@H]2C[C@H]2O[C@]2(C)CC/C=C(\C)CCC[C@@H]1C` (stereo partly specified), for which the GI50 was 8.22 µM and the TGI worked out at 49.1 µM.
Regarding `ONC1=Nc2ccccc2C(=S)N2CSCC12` (stereo unspecified), the TGI is above 100 µM.
Turning to `CC(=O)n1cc(OP(=O)(Oc2ccccc2)Oc2ccccc2)c2ccccc21`, the TGI was above 100 µM.
On to `Clc1ccccc1CNc1c2ccccc2nc2ccccc12`, for which the GI50 was 2.18 µM and the TGI amounted to 8.49 µM.
Compound `ON[C@H]1C[C@@H](n2cnc3c(NC4CC4)ncnc32)[C@H](O)[C@@H]1O` came in with a TGI above 100 µM.
Still for that read-out and setting: under `COc1cc(/C=C\c2nnc(/C=C\c3ccc(O)c(OC)c3)s2)ccc1O` stands 27.8 µM; under `Cc1[nH]c(=O)[nH]c1C(=O)c1ccc(-n2ccnc2)cc1`, above 100 µM.
As to `Cn1c(N)nc(=O)c2c1N(C1OC(CO)C(O)C1O)CN2Cc1ccccc1` (stereo unspecified), the TGI is above 100 µM.
The same measure, in the same setting: under `CC1(C)N=C(N)N=C(N)N1c1cccc(C(=O)Nc2ccc(S(=O)(=O)F)cc2)c1` stands above 100 µM.
`CC1(N)CCN(c2cnc(-c3cccc(Cl)c3Cl)c(N)n2)CC1`: the GI50 is 5.37 µM and the TGI was above 100 µM.
In the case of `O=C1C=CC(=O)c2c(O)c(Br)c(Br)c(O)c21`, the TGI stood at 35.6 µM.
`CC(=O)O[C@@]12CO[C@@H]1C[C@@H](O)[C@@]1(C)C(=O)[C@H](O)C3=C(C)[C@@H](OC(=O)[C@H](O)[C@@H](NC(=O)c4ccccc4)c4ccccc4)C[C@@](O)([C@@H](OC(=O)c4ccccc4)C12)C3(C)C` (stereo partly specified) gave a TGI above 100 µM.
With `O=C(CC(=O)c1cccc2ccccc12)C(=O)NC1C2CC3CC(C2)CC1C3` (stereo unspecified), the TGI is above 100 µM.
The compound `COc1cc2c(cc1OC)C(=O)C1(C2)[C@H](c2ccccc2)C2C(=O)c3cc(OC)c(OC)cc3C2[C@H]1c1ccccc1` (stereo partly specified) came in with a TGI above 100 µM.
As for `CC(C)C[C@H](NC(=O)[C@H](Cc1ccc(F)cc1)NC(=O)c1ccccn1)B(O)O`, the TGI stood at 0.232 µM.
Take `COC(=O)C(Br)C1CCc2ccccc21` (stereo unspecified): the TGI is above 100 µM.
`CCN(CC)c1ccc2nc3ccc(N=Nc4c(O)ccc5ccccc45)cc3[n+](-c3ccccc3)c2c1` showed a TGI above 100 µM.
In turn, `C#Cc1cc(Br)c(OC(=O)C(C)(C)C)c(-c2cc(C#C)cc(Br)c2OC(=O)C(C)(C)C)c1` gave a TGI above 100 µM.
On to `C/C(O)=C(\C#N)C(=O)Nc1ccc(C(F)(F)F)cc1`, for which the GI50 is above 100 µM and the TGI is above 100 µM.
In the case of `Cc1cc(-c2ccccn2)cc(C)c1/C=C/c1cncc(-c2nn[nH]n2)c1`, the GI50 was above 25 µM and the TGI is above 25 µM.
As for `COC(=O)C(C(=O)C(=O)Nc1cccc([N+](=O)[O-])c1)c1nc2ccc([N+](=O)[O-])cc2[nH]c1=O` (stereo unspecified), the TGI was above 100 µM.
In turn, `CCN(CCCl)c1cc(CN(C)C)cc(NC(=O)C23CCC(C(=O)Nc4cc(CN(C)C)cc(N(CC)CCCl)c4)(CC2)CC3)c1` had a TGI of 12.7 µM.
The same measure, in the same setting: the value for `CN1C(=O)C(O)CC1c1ccccc1C(F)(F)F` (stereo unspecified) was above 100 µM.
Still for that read-out and setting: the value for `COc1ccc(C2=C(N)c3ncccc3C2=O)cc1` was above 100 µM.
The same measure, in the same setting: the value for `N#CC1(C#N)C2C=CC(c3coc4cccc2c34)C1(C#N)C#N` (stereo unspecified) was 32 µM.
Turning to `CCCN(CCC)c1ccc(/C=N/NC(=O)c2cccnc2)c(OC)c1`, the GI50 was 37.3 µM and the TGI was above 100 µM.
Take `O=C(c1ccccc1)C1C(c2ccccc2)N1S(=O)(=O)c1ccccc1` (stereo unspecified): the TGI was above 100 µM.
The same measure, in the same setting: the value for `Cc1ccc2c(ccc(/C=C\c3cc(C)c4cccnc4c3O)[n+]2C)c1` was 30.2 µM.
In the case of `O=S(=O)(SC1=NCCN1)c1cccc2ccccc12`, the TGI is above 100 µM.
`CCOC(OCC)N1C(=O)C2(C(OCC)OCC)CC3C(OC(=O)N3N)c3cccc1c32` (stereo unspecified) gave a TGI above 100 µM.
The compound `CC1(C(=O)Nc2ccc3ccccc3c2)CC2(C)CC(C)(C1)C(O)NC2=O` (stereo unspecified) gave a TGI above 100 µM.
As for `Cc1ccc(NS(=O)(=O)c2cccc(C#N)c2)c2[nH]cc(C#N)c12`, the GI50 was 32.9 µM and 34.5 µM; the TGI is above 100 µM.
For the compound `CCOC(=O)c1cc(-c2ccccc2)[nH]c1N/N=C/c1ccc(Cl)cc1`, the GI50 was above 100 µM and the TGI is above 100 µM.
